According to PubChem BioAssay AID686978 (National Center for Advancing Translational Sciences (NCATS), 2013):
The campaign covered roughly 420,000 compounds. About 64,000 (15%) were called active. Inconclusive means that the source gave no clear call. Such entries were picked first, then a sample of the others. The call rests on the fitted dose curve; in most records, active means well fitted inhibition curve with a large enough effect; inconclusive means small, poorly fitted or top-dose-only effect; inactive means flat fitted curve, though single readings scatter. Potencies of inconclusive entries are left out as doubtful fits.

Assay: qHTS for Inhibitors of human tyrosyl-DNA phosphodiesterase 1 (TDP1): qHTS in cells in absence of CPT; further: nearly all actives have a fitted effect of over 55% in size
Conditions: DT40 Tdp1-/- hTDP1 cells, no CPT, ATP luminescence, 48 h; activity change, negative = growth inhibition: at 46.2 µM (top of the series) unless noted
In short: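 Stably hTDP1-transfected Tdp1-null chicken DT40 cells were treated with library compounds minus camptothecin and grown for at least 48 hr at 37 °C, after which cellular ATP was quantified by luminescence.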
On the % scale 0 is the no-effect control and ±100 the full control effect; potency means the concentration at half of the fitted maximal effect; tags describe the fitted curve by direction and shape.

Structure (SMILES) | Potency | activity change, negative = growth inhibition
CCOC(=O)N1CCC(NC(=O)c2ccc3c(c2)N(Cc2cc(C)ccc2C)C(=O)c2ccccc2S3=O)CC1 (stereo not drawn) | active: 18.4 µM | –
COc1ccc(Cc2c(-c3ccc(F)cc3)nc3c(C)cc(Br)cn23)c(C)c1 | active: 18.4 µM | –
Cc1cc(Cl)ccc1C(=O)C1CCCN(C(=O)c2cnn(C(C)C)c2)C1 (stereo not drawn) | inconclusive [inhibitor, partial curve] | –
CC1CCN(c2nc3c(c(=O)n(C)c(=O)n3C)n2Cc2ccccc2)CC1 | inconclusive [inhibitor, single point] | –
O=C(Cn1cnc2c(nnn2Cc2ccc(Cl)cc2)c1=O)N1CCCc2ccccc21 | inconclusive [inhibitor, single point] | –
COc1ccc(C2/C(=C(/O)c3ccc(F)cc3)C(=O)C(=O)N2c2ccccn2)cc1OC (stereo not drawn) | active: 23.1 µM | –
CCOC(=O)c1c(NC(=O)/C=C\C(=O)O)sc(C)c1-c1ccccc1 | inconclusive [inhibitor, single point] | –
Cn1ncc(Cl)c1C(=O)N1CCN(C23CC4CC(CC(C4)C2)C3)CC1 | inconclusive [inhibitor, partial curve, poor fit] | –
O=C(NCCc1cccc(C(F)(F)F)c1)C1CCC(=O)N(C2CC2)C1 (stereo not drawn) | – | inactive: -19.9%
CCCn1cnc2c(SCc3ccccc3)nc(N)nc21 | inconclusive [inhibitor, single point] | –
Cc1cccc(C(=O)NNC(=O)C2CCCCC2)c1O | active: 23.1 µM | –
CCOc1cc(C(=O)NCCc2csc(-c3ccc(C)cc3)n2)cc(OCC)c1OCC | active: 16.4 µM | –
Cc1cccc(-c2nc(CS(=O)CC(=O)NC3CCCC(C)C3C)c(C)o2)c1 (stereo not drawn) | inconclusive [inhibitor, single point] | –
N/C(Cc1ccc([N+](=O)[O-])cc1)=N\OC(=O)c1cccc(Br)c1 | inconclusive [inhibitor, single point] | –
COc1ccc(OC)c(S(=O)(=O)N(C)CC(=O)N2CCN(c3ccccc3)CC2)c1 | – | inactive: -2.97%
S=C1NCCc2ccc(Cl)cc2C1c1ccccc1Cl (stereo not drawn) | inconclusive [inhibitor, single point] | –
CN(C)c1cccc(C(=O)Nc2ccc3nc4n(c(=O)c3c2)CCCCC4)c1 | inconclusive [inhibitor, single point] | –
CCCCNC(=S)NNC(=O)c1csc(C)c1 | inconclusive [inhibitor, single point] | –
Cc1ccc(NC(=O)CN2C(=O)c3ccccc3C2=O)cc1 | – | inactive: 0.909%
Oc1ccccc1C1=NN(c2ccccc2)C(c2ccccc2)C1 (stereo not drawn) | inconclusive [inhibitor, single point] | –
CCOC(=O)N1CCC(NC(=O)C2CCCN(S(=O)(=O)c3ccc4c(c3)oc(=O)n4C)C2)CC1 (stereo not drawn) | inconclusive [inhibitor, partial curve] | –
Cc1noc(C)c1CSCC(=O)N(C)CC(=O)Nc1ccc(Cl)c(Cl)c1 | inconclusive [inhibitor, single point] | –

Structure (SMILES) | Potency | activity change, negative = growth inhibition
CCOC(=O)CSc1nc2cc(C(=O)N3CCC(C(N)=O)CC3)ccc2c(=O)n1-c1ccccc1 | – | inactive: -10.8%
CN1CCN(C(=O)c2ccc(OCCOc3ccccc3)cc2)CC1 | – | inactive: -9.15%
CN(C(=O)c1cc2c(=O)n3ccccc3nc2n1C)c1ccccc1 | inconclusive [inhibitor, single point] | –
COc1cc(C(=O)OCC(=O)N2CCCCCC2)c([N+](=O)[O-])cc1OC | – | inactive: -7.46%
c1ccc(-c2n[nH]c(-c3ccccc3)c2-c2nc3ccccc3[nH]2)cc1 | inconclusive [inhibitor, single point] | –
CCOC(=O)c1c(NC(=O)CSc2nc(-c3ccccc3)cc(C(F)(F)F)n2)sc(C)c1C | inconclusive [inhibitor, single point] | –
Cn1cc(CCCC(=O)NCc2ccccc2Cl)c2ccccc21 | inconclusive [inhibitor, single point] | –
N#Cc1ncc(Cc2ccccc2)nc1C#N | inconclusive [inhibitor, single point] | –
Cc1ccc(S(=O)(=O)N(CC(=O)N2CCCCCC2)c2ccccc2)cc1 | inconclusive [inhibitor, single point] | –
COc1ccc(-c2nc(N=Nc3ccc(O)cc3)n[nH]2)cc1 | inconclusive [inhibitor, partial curve, poor fit] | –
Cc1cc2nc(-c3ccccc3)c(CC3CCCCC3)n2c(C)c1Br | active: 14.6 µM | –
COc1ccc(S(=O)(=O)N2CCN(c3ccc4nnc(-c5ccccc5)n4n3)CC2)cc1 | inconclusive [inhibitor, single point] | –
COC(=O)c1cc(NS(=O)(=O)c2ccc(Cl)c(N3C(=O)c4ccc(C(=O)O)cc4C3=O)c2)cc(C(=O)OC)c1 | – | inactive: 3.8%
CCOC(=O)N=S(N)(=O)c1ccc(Cl)cc1 (stereo not drawn) | inconclusive [inhibitor, single point] | –
Cc1cc(C)cc(Nc2nc3ccccc3c(=O)[nH]2)c1 | inconclusive [inhibitor, single point] | –
O=C(NCCc1c[nH]c2ccccc12)Nc1ccccc1 | inconclusive [inhibitor, full curve, poor fit] | –
CCCCn1c(NC(=O)c2ccc(Br)o2)c(S(=O)(=O)c2ccccc2)c2nc3ccccc3nc21 | inconclusive [inhibitor, single point] | –
CCOc1ccc(CCNC(=O)Cn2nnc(-c3ccc(C(F)(F)F)cc3)n2)cc1OCC | – | inconclusive: -25.5% [inhibitor]
O=C(CCCN1C(=O)c2ccccc2C1=O)Nc1ccc2c(c1)OCCO2 | – | inactive: -11.1%
Cc1c(C(=O)NCC2CCCN(C)C2)cnn1-c1ncc2c(n1)-c1ccccc1CCC2 (stereo not drawn) | – | inactive: -11.7%
CC(C)[C@H](NC(=O)c1ccccc1)C(=O)OCC(=O)NCCC1=CCCCC1 | inconclusive [inhibitor, partial curve, poor fit] | –
